From PubChem BioAssay AID1240 (Sanford-Burnham Center for Chemical Genomics, 2008)
The whole screen tested about 50,000 compounds, of which about 800 (1.6%) showed an effect of 50% or more. The list shows a part of the results.

target: Bcl-2-like protein 10 (Homo sapiens) (UniProt Q9HD36); assay: Phenotype converters, Bcl-B/TR3 peptide binding displacement, primary biochemical FP (AID 1240); details: GST-Bcl-B / FITC-TR3 peptide fluorescence polarization; stronger effect = higher value; compound at 3.75 mg/L;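 further: 0% = Bcl-B with tracer peptide and DMSO and 100% = tracer peptide lacking Bcl-B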
Chain of UniProt Q9HD36 (Q9HD36 whole entry, looked up): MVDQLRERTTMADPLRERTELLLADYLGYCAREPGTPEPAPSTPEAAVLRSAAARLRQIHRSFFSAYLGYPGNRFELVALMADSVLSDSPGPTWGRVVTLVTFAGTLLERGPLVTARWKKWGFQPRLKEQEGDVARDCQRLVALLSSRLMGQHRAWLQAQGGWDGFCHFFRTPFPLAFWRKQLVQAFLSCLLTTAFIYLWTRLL

Row | Structure (SMILES) | displacement
1 | COC(=O)C1=C(C)N(Cc2ccco2)C(=O)/C1=C\c1ccc(O)c(OC)c1 | 8.1%
2 | CCCOc1cc(OCCC)c(C#CCN2CCCCC2)cc1C#CCN1CCCCC1 | 3.4%
3 | CCOC(=O)C(C#N)C1(c2ccc(OC)cc2)CCOC(C)(CC)C1 (centres undefined) | 1.2%
4 | C=C1CSc2nc(=O)c3c4c(sc3n21)CCC4 | 11.7%
5 | CCOC(=O)c1ccccc1NC(=O)CN(c1cc(OC)ccc1OC)S(C)(=O)=O | 13.6%
6 | CC(=O)Nc1ccccc1C(=O)N1CCc2ccccc2C1 | -5.9%
7 | COc1cc(C(=O)N(C)Cc2ccccc2)c([N+](=O)[O-])cc1OC | -1.4%
8 | Cc1ccccc1C(=O)NN1C(=O)/C(=C\c2ccncc2)SC1=S | 12.3%
9 | O=C(Nc1ccc(Cl)cc1)Nc1nnc(CSCc2ccccc2)s1 | 4.7%
10 | CCOC(=O)c1nc2nc(-c3ccccc3)cc(C(F)(F)F)n2n1 | -3.5%
11 | O=C1C=C(Nc2ccc([N+](=O)[O-])cc2)CN1 | 4.5%
12 | COc1ccccc1NC(=O)c1ccc(CN2CCOCC2)cc1 | -21.5%
13 | O=C(NCCc1ccc(Cl)cc1)C(=O)NCc1ccccc1 | 8%
14 | COc1ccc(OC)c(NC(=O)Cc2ccc([N+](=O)[O-])cc2)c1 | 6.6%
15 | O=C(Nc1ccc(Br)cn1)c1cc2ccccc2o1 | 1.2%
16 | O=C(c1sc2ccccc2c1Cl)N1CCN(Cc2ccc3c(c2)OCO3)CC1 | 0.4%
17 | COc1ccc(S(=O)(=O)N2CCN(CCN3C(=O)c4cccc5cccc(c45)C3=O)CC2)cc1 | -3.8%
18 | CCN(CC)c1ccc(N2C(=O)/C(=C/c3ccccc3[N+](=O)[O-])SC2=S)cc1 | -5.2%
19 | Cc1cccc(CN2CCN(C(=O)c3ccc(F)cc3)CC2)c1 | -17.7%
20 | O=C(c1ccc(F)cc1)N1CCN(c2cccc(Cl)c2)CC1 | 2.4%
21 | COc1ccc(Cl)cc1C(=O)N(C)c1ccccc1 | -2.5%
22 | Cc1ccccc1NCC(=O)N/N=C\c1ccc(Cl)c([N+](=O)[O-])c1 | 6.9%

Row | Structure (SMILES) | displacement
23 | CCOP(=O)(OCC)/C(=C(\NC(=O)c1ccccc1)C(=O)Nc1ccccc1C(F)(F)F)c1ccccc1 | 12.2%
24 | C=C(C)Cn1c(SCC(=O)O)nnc1-c1ccc(C(C)(C)C)cc1 | 2.2%
25 | COc1ccc(CC(=O)N2N=C(c3ccc(F)cc3)CC2(O)C(F)(F)F)cc1 (centres undefined) | -12.5%
26 | COCCCNC(=O)COc1ccc2ccccc2c1 | 10.7%
27 | CC(C)OC(=O)c1c(-c2ccc(Cl)cc2Cl)csc1NC(=O)/C=C/C(=O)O | -7.5%
28 | COc1cccc(-c2nc3cc(NC(=O)c4ccc(Br)o4)ccc3o2)c1 | -4.8%
29 | Cc1ccccc1OCC(=O)Nc1ccc(Br)cn1 | 3.1%
30 | CC1=C(C(=O)Nc2ccccc2)C(c2ccccc2F)NC(=S)N1 (centres undefined) | 1.4%
31 | O=C(NCc1cccnc1)c1nn2c(c1Cl)NC(c1ccccc1)CC2C(F)(F)F (centres undefined) | 6.2%
32 | O=[N+]([O-])c1ccc(C=NN2CCN(Cc3ccccc3)CC2)cc1 | -2.6%
33 | CCOCCOC(=O)C1=C(C)N(C)C(=O)NC1c1ccccc1Cl (centres undefined) | -24.3%
34 | CCOC(=O)C1=C(C)N(CC(C)C)C(=O)/C1=C\c1ccco1 | 12.3%
35 | O=C(COc1ccccc1)N1N=C(c2ccc([N+](=O)[O-])cc2)CC1(O)C(F)(F)F (centres undefined) | -12.5%
36 | O=C(Nc1ccccc1I)c1ncn[nH]1 | -0.6%
37 | Cc1ccc(-c2nc3ccccc3c(=O)n2CCCn2ccnc2)cc1 | -8.9%
38 | O=[N+]([O-])c1ccc(/C(=N/O)c2ccncc2)cc1 | 9.5%
39 | O=C1CSC(=S)N1/N=C/c1cccc(OCCOc2ccc(Br)cc2)c1 | 10%
40 | COc1ccc(OC)c(C2NC(=S)NC(C)=C2C(=O)Nc2ccccc2OC)c1 (centres undefined) | 1.1%
41 | CCOc1ccccc1/C=C(/NC(=O)c1ccccc1)C(=O)N1CCOCC1 | 10.4%
42 | O=[N+]([O-])c1ccc2c(c1)C(C#Cc1ccccc1)C1CCCCC1(N1CCOCC1)O2 (centres undefined) | 11%
43 | O=C(c1ccccc1Cl)N1N=C(c2ccc(Cl)cc2)CC1(O)C(F)(F)F (centres undefined) | 2.3%
44 | COc1ccc(S(=O)(=O)N2CCN(Cc3cc(OC)c(OC)c(OC)c3)CC2)cc1 | -7.7%

Row | Structure (SMILES) | displacement
45 | O=C(Nc1cccc(Cl)c1)/C(=C\c1ccco1)NC(=O)c1cccs1 | -3.8%
46 | O=C(NCc1ccccn1)C(=O)Nc1ccccc1F | -20.9%
47 | CCc1ccccc1NC(=O)COc1ccc2ccccc2c1 | 5.2%
48 | CCN(CC)c1ccc(NC(=O)C(C)(C)C)cc1 | 10.5%
49 | CC1CCCC(C)N1C(=O)c1nn2c(c1Cl)NC(c1ccc(Cl)cc1)CC2C(F)(F)F (centres undefined) | 8.1%
50 | CC1(C)CC(=O)C(=Cc2cn(-c3ccccc3)nc2-c2ccccc2)C(=O)C1 | 8.7%
51 | Cc1ccoc1C(=O)Nc1ccccc1 | 14.2%
52 | CN1CCN(C2=C(Cl)C(=O)N(c3ccc(Br)cc3)C2=O)CC1 | 15.9%
53 | Clc1ccc(-c2nnc(-c3ccccc3)o2)cc1 | 10.6%
54 | CCOC(=O)C1=C(C)N=c2s/c(=C\c3c[nH]c4ccccc34)c(=O)n2C1c1cccc(OC)c1 (centres undefined) | 32.8%
55 | Cc1c(Br)c(C(F)(F)F)nn1CC(=O)Nc1c(F)cc(F)cc1Br | -4%
56 | CCOc1ccc(N(CC(=O)N2CCOCC2)S(=O)(=O)c2ccccc2)cc1 | -4.4%
57 | Cc1ccc(-c2cc(NC(=O)c3cccc(C)c3)n[nH]2)cc1 | 16.3%
58 | Cc1ccc(N2CCN(C(=O)Nc3ccc(Cl)cc3Cl)CC2)cc1 | 5.9%
59 | O=C1CC(n2ccnc2)C(=O)N1c1ccccc1 (centres undefined) | -3.4%
60 | CC(Oc1ccc2oc(-c3ccccc3)c(C(=O)O)c2c1)C(=O)O (centres undefined) | 59.2%
61 | CCCC1CCc2c(sc(N)c2C(N)=O)C1 (centres undefined) | 5.6%
62 | CC(=O)Nc1ccc(NS(=O)(=O)c2ccc(C)cc2C)cc1 | 23.6%
63 | Ic1ccc(N/N=C/c2ccc(N3CCOCC3)cc2)cc1 | 10%
64 | O=C(Nc1ccccc1C(=O)O)c1cccc(S(=O)(=O)Nc2ccc(F)cc2)c1 | 2.8%
65 | CCOc1ccc(S(=O)(=O)N2CCN(c3ccccc3OC)CC2)cc1 | -5.8%
66 | CCOc1ccccc1N(CC(=O)Nc1cccc(C(F)(F)F)c1)S(=O)(=O)c1ccccc1 | 1.6%

Row | Structure (SMILES) | displacement
67 | COc1ccc(N(CC(=O)Nc2cc(C)ccc2C)S(=O)(=O)c2ccc(C)cc2)cc1 | 4.5%
68 | COc1cccc(CN2CCN(Cc3cccnc3)CC2)c1 | -13.5%
69 | CN(C)/C=C1\N=C(c2ccc(C(C)(C)C)cc2)OC1=O | 0.4%
70 | CN(C)c1ccc(C2C(C(=O)OC(C)(C)C)C(=O)CC(C)(O)C2C(=O)OC(C)(C)C)cc1 (centres undefined) | -5.1%
71 | CCOC(=O)COc1ccc(/C=C2\C(=O)NC(=O)N(c3ccc(C)cc3)C2=O)cc1OC | 4.1%
72 | CCN(CC)c1ccc(NC(=O)c2ccc(OC)c([N+](=O)[O-])c2)cc1 | 8%
73 | CCc1cc(=O)oc2cc(OCc3ccc(Cl)cc3)ccc12 | 0%
74 | CCN1C(=O)c2ccccc2S1(=O)=O | -5.9%
75 | CCCCCCCC(=O)N/N=C/c1c[nH]c2ccccc12 | -5.7%
76 | CCSc1nnc(NC(=O)/C=C/c2ccc(C(C)(C)C)cc2)s1 | -2.5%
77 | Cc1cc(C)n(-c2nc(C)nc(NCc3ccccc3)n2)n1 | -16.2%
78 | Cc1ccc(Cl)cc1NC(=O)C(=O)NCCO | -14.9%
79 | O=C(c1sc2cc(Cl)ccc2c1Cl)N1CCOCC1 | 2%
80 | C=CCNC(=O)C(NC(=O)c1ccccc1)=C1CCCCC1 | -11.3%
81 | CCc1ccc(NC(=O)CN(c2cccc(Cl)c2)S(=O)(=O)c2ccccc2)cc1 | -12.3%
82 | CCc1ccccc1NC(=O)CC1S\C(=N/N=C(C)/C=C/c2ccc(OC)cc2)NC1=O (centres undefined) | 14.7%
83 | O=C(COc1ccc(Br)cc1)Nc1ccc2c(c1)oc1ccccc12 | -2.6%
84 | COc1cc(OC)c(NC(=O)c2ccc(Cl)c(Cl)c2)cc1Cl | 2.9%
85 | N/C(=N\OC(=O)c1ccc(Br)cc1)c1ccc([N+](=O)[O-])cc1 | 5.6%
86 | Cc1ccc(S(=O)(=O)N(CC(=O)Nc2ccccc2F)c2cc(C)cc(C)c2)cc1 | -3%
87 | COc1ccc(S(=O)(=O)N(CCc2ccccc2)CC(=O)N2CCCC2)cc1 | -12.5%
88 | CC(=NCCc1ccccc1)C1=C(O)CSC1=O | 13.6%

Row | Structure (SMILES) | displacement
89 | COc1cccc(-c2cc(C(=O)Nc3sc(C)c(C)c3C(N)=O)c3ccccc3n2)c1 | -5.6%
90 | CCCOc1ccc(/C=N/N=C/c2ccc(OCCC)cc2)cc1 | -1.1%
91 | COc1ccc(N=Cc2c(O)n(-c3ccc(F)cc3)c(=O)[nH]c2=O)c(OC)c1 | -10.5%
92 | COc1cc(/C=N/n2cnnc2)ccc1O | 11.6%
93 | Cc1cc(C)n(-c2cc(NCCO)nc(-c3ccc(Br)cc3)n2)n1 | -0.9%
94 | O=C(Nc1ccccc1C(=O)O)c1ccc2c(c1)C(=O)N(C1CCCCC1)C2=O | 15.1%
95 | Cc1ccc(OCC(=O)Nc2cc(Cl)cc(Cl)c2)cc1C | 6.5%
96 | Cc1ccc(-n2[nH]c(=O)c(/C=C3\C=Nc4ccccc43)c2O)cc1 | -0.9%
97 | O=C(CN1C(=O)c2ccccc2C1=O)Nc1ccccc1Br | -5%
98 | COc1cc([N+](=O)[O-])ccc1NC(=O)c1cccc(F)c1 | 14.9%
99 | CC1(C)C(C=C(Cl)Cl)C1C(=O)ON1C(=O)CCC1=O (centres undefined) | -7.2%
100 | O=C(Nc1ccn(-c2ccccc2)n1)c1ccc(Cl)cc1 | 5%
101 | CCOc1ccc(C(=O)N2CCN(c3ccc([N+](=O)[O-])cc3Cl)CC2)cc1 | -7%
102 | O=C(Nc1ccncc1)c1ccccc1Oc1ccccc1 | -8.2%
103 | Cc1ccc2nc(-c3ccc(N=Cc4cccc(O)c4O)cc3)sc2c1 | -3%
104 | O=c1oc(-c2cccs2)nc2cc([N+](=O)[O-])ccc12 | 1.1%
105 | CC1=C(C(=O)OCc2ccccc2)C(c2sccc2C)NC(=S)N1 (centres undefined) | 12.6%
106 | COc1ccc(C2C(C(=O)OC(C)C)=C(C)N=c3s/c(=C\c4cc(OC)ccc4OC)c(=O)n32)cc1 (centres undefined) | 6.4%
107 | O=C(Nc1ccc(Br)cc1C(=O)O)c1cccc(N2C(=O)c3ccccc3C2=O)c1 | -9.5%
108 | N#C/C(=C\c1cc(I)cc(I)c1O)c1ccc([N+](=O)[O-])cc1 | -8.1%
109 | c1ccc(-c2cc(-c3ccccc3)nc(N3CCCCC3)n2)cc1 | -6.8%
